Measurements from the supplement of paper PMC8728848.
Some of the results follow.

What was measured:
Test in all cases: glycan array binding signal (z-score within array); higher = stronger binding
Details in all cases: glycan notation: IUPAC condensed, linker removed
Fuc(a1-2)Gal = molecular target: Fuc(a1-2)Gal
Method in brief: (§1)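 The binding signal is a Z-score computed within each array and averaged over linkers. Arrays of the same protein sequence at different concentrations or buffers were also averaged together. Data originate from 3228 arrays in the Consortium for Functional Glycomics database, kept only where the protein sequence was available.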

Fuc(a1-2)Gal(b1-3)GalNAc = molecular target: Fuc(a1-2)Gal(b1-3)GalNAc
Method in brief: as §1

[1] = molecular target: Fuc(a1-2)Gal(b1-3)GalNAc(a1-3)[Fuc(a1-2)]Gal(b1-4)Glc
Method in brief: as §1

[2] = molecular target: Fuc(a1-2)Gal(b1-3)GalNAc(a1-3)[Fuc(a1-2)]Gal(b1-4)GlcNAc
Method in brief: as §1

[3] = molecular target: Fuc(a1-2)Gal(b1-3)GalNAc(b1-3)Gal
Method in brief: as §1

[4] = molecular target: Fuc(a1-2)Gal(b1-3)GalNAc(b1-3)Gal(a1-4)Gal(b1-4)Glc
Method in brief: as §1

[5] = molecular target: Fuc(a1-2)Gal(b1-3)GalNAc(b1-4)[Neu5Ac(a2-3)]Gal(b1-4)Glc
Method in brief: as §1

Fuc(a1-2)Gal(b1-3)GlcNAc = molecular target: Fuc(a1-2)Gal(b1-3)GlcNAc
Method in brief: as §1

[6] = molecular target: Fuc(a1-2)Gal(b1-3)GlcNAc(b1-2)Man(a1-3)[Fuc(a1-2)Gal(b1-3)GlcNAc(b1-2)Man(a1-6)]Man(b1-4)GlcNAc(b1-4)GlcNAc
Method in brief: as §1

[7] = molecular target: Fuc(a1-2)Gal(b1-3)GlcNAc(b1-2)Man(a1-3)[Fuc(a1-2)Gal(b1-3)GlcNAc(b1-2)Man(a1-6)]Man(b1-4)GlcNAc(b1-4)[Fuc(a1-6)]GlcNAc
Method in brief: as §1

[8] = molecular target: Fuc(a1-2)Gal(b1-3)GlcNAc(b1-3)Gal(b1-4)Glc
Method in brief: as §1

[9] = molecular target: Fuc(a1-2)Gal(b1-3)GlcNAc(b1-3)GalNAc
Method in brief: as §1

[10] = molecular target: Fuc(a1-2)Gal(b1-3)GlcNAc(b1-3)[Fuc(a1-2)Gal(b1-3)GlcNAc(b1-6)]GalNAc
Method in brief: as §1

[11] = molecular target: Fuc(a1-2)Gal(b1-3)GlcNAc(b1-3)[Gal(b1-4)GlcNAc(b1-6)]Gal(b1-4)Glc
Method in brief: as §1

[12] = molecular target: Fuc(a1-2)Gal(b1-3)GlcNAc(b1-3)[Neu5Ac(a2-6)Gal(b1-4)GlcNAc(b1-6)]Gal(b1-4)Glc
Method in brief: as §1

[13] = molecular target: Fuc(a1-2)Gal(b1-3)GlcNAc6S
Method in brief: as §1

[14] = molecular target: Fuc(a1-2)Gal(b1-3)[Fuc(a1-4)]GlcNAc
Method in brief: as §1

[15] = molecular target: Fuc(a1-2)Gal(b1-3)[Fuc(a1-4)]GlcNAc(b1-2)Man(a1-3)[Fuc(a1-2)Gal(b1-3)[Fuc(a1-4)]GlcNAc(b1-2)Man(a1-3)]Man(b1-4)GlcNAc(b1-4)GlcNAc
Method in brief: as §1

[16] = molecular target: Fuc(a1-2)Gal(b1-3)[Fuc(a1-4)]GlcNAc(b1-2)Man(a1-3)[Fuc(a1-2)Gal(b1-3)[Fuc(a1-4)]GlcNAc(b1-2)Man(a1-6)]Man(b1-4)GlcNAc(b1-4)[Fuc(a1-6)]GlcNAc(b1-4)[Fuc(a1-6)]GlcNAc
Method in brief: as §1

[17] = molecular target: Fuc(a1-2)Gal(b1-3)[Fuc(a1-4)]GlcNAc(b1-3)[Fuc(a1-3)[Gal(b1-4)]GlcNAc(b1-6)]Gal(b1-4)Glc
Method in brief: as §1

[18] = molecular target: Fuc(a1-2)Gal(b1-3)[Fuc(a1-4)]GlcNAc(b1-3)[Gal(b1-4)GlcNAc(b1-6)]Gal(b1-4)Glc
Method in brief: as §1

[19] = molecular target: Fuc(a1-2)Gal(b1-4)Fuc(a1-3)]GlcNAc(b1-2)Man(a1-3)[Fuc(a1-2)Gal(b1-4)[Fuc(a1-3)]GlcNAc(b1-2)Man(a1-6)]Man(b1-4)GlcNAc(b1-4)GlcNAc
Method in brief: as §1

Fuc(a1-2)Gal(b1-4)Glc = molecular target: Fuc(a1-2)Gal(b1-4)Glc
Method in brief: as §1

Fuc(a1-2)Gal(b1-4)Glc6S = molecular target: Fuc(a1-2)Gal(b1-4)Glc6S
Method in brief: as §1

Fuc(a1-2)Gal(b1-4)GlcNAc = molecular target: Fuc(a1-2)Gal(b1-4)GlcNAc
Method in brief: as §1

[20] = molecular target: Fuc(a1-2)Gal(b1-4)GlcNAc(b1-2)Man
Method in brief: as §1

[21] = molecular target: Fuc(a1-2)Gal(b1-4)GlcNAc(b1-2)Man(a1-3)[Fuc(a1-2)Gal(b1-4)GlcNAc(b1-2)Man(a1-6)]Man(b1-4)GlcNAc(b1-4)GlcNAc
Method in brief: as §1

[22] = molecular target: Fuc(a1-2)Gal(b1-4)GlcNAc(b1-2)Man(a1-3)[Fuc(a1-2)Gal(b1-4)GlcNAc(b1-2)Man(a1-6)]Man(b1-4)GlcNAc(b1-4)[Fuc(a1-6)]GlcNAc
Method in brief: as §1

[23] = molecular target: Fuc(a1-2)Gal(b1-4)GlcNAc(b1-2)[Fuc(a1-2)Gal(b1-4)GlcNAc(b1-4)]Man(a1-3)[Fuc(a1-2)Gal(b1-4)GlcNAc(b1-2)Man(a1-6)]Man(b1-4)GlcNAc(b1-4)GlcNAc
Method in brief: as §1

[24] = molecular target: Fuc(a1-2)Gal(b1-4)GlcNAc(b1-3)Gal(b1-4)GlcNAc
Method in brief: as §1

[25] = molecular target: Fuc(a1-2)Gal(b1-4)GlcNAc(b1-3)Gal(b1-4)GlcNAc(b1-2)Man(a1-3)[Fuc(a1-2)Gal(b1-4)GlcNAc(b1-3)Gal(b1-4)GlcNAc(b1-2)Man(a1-6)]Man(b1-4)GlcNAc(b1-4)GlcNAc
Method in brief: as §1

[26] = molecular target: Fuc(a1-2)Gal(b1-4)GlcNAc(b1-3)Gal(b1-4)GlcNAc(b1-3)Gal(b1-4)GlcNAc
Method in brief: as §1

[27] = molecular target: Fuc(a1-2)Gal(b1-4)GlcNAc(b1-3)GalNAc
Method in brief: as §1

[28] = molecular target: Fuc(a1-2)Gal(b1-4)GlcNAc(b1-3)[Fuc(a1-2)Gal(b1-4)GlcNAc(b1-6)]GalNAc
Method in brief: as §1

[29] = molecular target: Fuc(a1-2)Gal(b1-4)GlcNAc(b1-3)[Fuc(a1-3)[Gal(b1-4)]GlcNAc(b1-6)]Gal(b1-4)Glc
Method in brief: as §1

[30] = molecular target: Fuc(a1-2)Gal(b1-4)GlcNAc(b1-6)GalNAc
Method in brief: as §1

[31] = molecular target: Fuc(a1-2)Gal(b1-4)GlcNAc6S
Method in brief: as §1

B1: SP16664B-bot-474-25-474 (Bacteroides ovatus) (protein)
chain: CEEDIEIGNKIDESSYLASTQLSGLLLDENTNKNSSVIELRNNEYSTNVVFRLSKLPQKGVDVQIAVEESYAAIYNTIHETDFEVFPAANVKIANNGTFVLAPDDKVTPSVKVTLTAFDGMEEDKTYIVPLTVTSSTEGVTFTETSKHMVLLVQDYRNKPNTNKGEDAVQTVLYFEVNDTNPLNALEFLTESGKYFFDHIVLFAANINWDPEKQRVYLANNENVQFLLDNNDKYLQPLRKAGMKIIISILGNHDEAGVAQLSDMGAREFARELAAYCRAYNLDGVAFDDEYSNSPDLSNPWLASPSAYAGSRLMYECKAVMPEKIVSLYNLGNMYSSSLQVIDGIEPGQYCDYAVADYGGAAGPGTGMTLKQCAGMSIELRRGSGNSSESTARSRKEAGYGYYMFFALDPSLYGSQVYRCQSVCKGLYDETLVYPSYYYKKNSTEREAIN
For B1, which “glycan array binding signal (z-score)” value (Fuc(a1-2)Gal) is on record?
Its value is 0.062.

What about the “glycan array binding signal (z-score)” value (Fuc(a1-2)Gal(b1-3)GalNAc) of the same binder?
Its value is -0.171.

And the “glycan array binding signal (z-score)” value [1]?
Its value is -0.353.

What about the “glycan array binding signal (z-score)” value [2] of the same binder?
Its value is -0.363.

What about the “glycan array binding signal (z-score)” value [3] of the same binder?
Its value is -0.081.

And the “glycan array binding signal (z-score)” value [4]?
Its value is -0.244.

And the “glycan array binding signal (z-score)” value [5]?
The value was 0.469.

What about the “glycan array binding signal (z-score)” value (Fuc(a1-2)Gal(b1-3)GlcNAc) of the same binder?
The value was -0.283.

And the “glycan array binding signal (z-score)” value [6]?
Its value is 0.673.

What about the “glycan array binding signal (z-score)” value [7] of the same binder?
The value was 0.033.

And the “glycan array binding signal (z-score)” value [8]?
Its value is -0.215.

And the “glycan array binding signal (z-score)” value [9]?
The value was -0.226.

What about the “glycan array binding signal (z-score)” value [10] of the same binder?
Its value is 0.033.

And the “glycan array binding signal (z-score)” value [11]?
The value was -0.264.

And the “glycan array binding signal (z-score)” value [12]?
The value was 0.002.

What about the “glycan array binding signal (z-score)” value [13] of the same binder?
The value was 0.195.

What about the “glycan array binding signal (z-score)” value [14] of the same binder?
The value was -0.162.

What about the “glycan array binding signal (z-score)” value [15] of the same binder?
Its value is -0.154.

And the “glycan array binding signal (z-score)” value [16]?
The value was -0.081.

And the “glycan array binding signal (z-score)” value [17]?
The value was -0.35.

What about the “glycan array binding signal (z-score)” value [18] of the same binder?
The value was -0.652.

And the “glycan array binding signal (z-score)” value [19]?
Its value is 0.156.

And the “glycan array binding signal (z-score)” value (Fuc(a1-2)Gal(b1-4)Glc)?
The value was 0.16.

What about the “glycan array binding signal (z-score)” value (Fuc(a1-2)Gal(b1-4)Glc6S) of the same binder?
The value was 0.039.

And the “glycan array binding signal (z-score)” value (Fuc(a1-2)Gal(b1-4)GlcNAc)?
The value was -0.314.

And the “glycan array binding signal (z-score)” value [20]?
Its value is -0.105.

What about the “glycan array binding signal (z-score)” value [21] of the same binder?
Its value is 0.649.

And the “glycan array binding signal (z-score)” value [22]?
The value was 0.155.

What about the “glycan array binding signal (z-score)” value [23] of the same binder?
Its value is -0.174.

And the “glycan array binding signal (z-score)” value [24]?
Its value is -0.175.

And the “glycan array binding signal (z-score)” value [25]?
Its value is 0.089.

What about the “glycan array binding signal (z-score)” value [26] of the same binder?
Its value is -0.192.

What about the “glycan array binding signal (z-score)” value [27] of the same binder?
Its value is -0.014.

What about the “glycan array binding signal (z-score)” value [28] of the same binder?
The value was -0.207.

What about the “glycan array binding signal (z-score)” value [29] of the same binder?
Its value is -0.136.

And the “glycan array binding signal (z-score)” value [30]?
The value was -0.159.

And the “glycan array binding signal (z-score)” value [31]?
The value was -0.261.
